From the supplement of paper PMC12645437, “Orthogonal IMiD-Degron Pairs Induce Selective Protein Degradation in Cells” (ACS Chemical Biology, 2025)
This is one part of the list.

Target: no compound (DMSO)
Assay: log2 fold change of degron read counts, EGFP-low vs EGFP+ sorted cells; higher = lower degron-EGFP level without compound (poor expression or instability)
Conditions: compound: DMSO control; 18 h
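Note: jurkat cells carrying a lentiviral library of mutant zinc finger degrons fused to EGFP plus mCherry, mCherry+ cells FACS sorted, degron abundance counted by next-generation sequencing.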

Sequence | log2 fold change of degron read counts
FICNVCGAWFTQKGNLLRHIKL | 0.63
FACPICGHKFTQKGNLLRHIKL | -0.696
FHCPVCGAHFTQKGNLLRHIKL | 0.424
FSCEQCGAWFTQKGNLLRHIKL | -1.04
LNCPICGFHCTQKGNLLRHIKL | 0.691
FHCEVCGAAFTQKGNLLRHIKL | -1.72
FACSVCGHEFTQKGNLLRHIKL | -1.3
LTCNQCGFFCTQKGNLLRHIKL | 1.3
FGCNQCGRIFTQKGNLLRHIKL | 1.04
FWCDQCGAQFTQKGNLLRHIKL | -1.56
FQCDQCGAEFTQKGNLLRHIKL | -2.51
FECPICGHMFTQKGNLLRHIKL | -0.596
FHCNVCGADFTQKGNLLRHIKL | -1.46
FKCPQCGACFTQKGNLLRHIKL | -1.04
LNCEICGFECTQKGNLLRHIKL | -0.567
FQCNQCGHFFTQKGNLLRHIKL | -0.054

Sequence | log2 fold change of degron read counts
FSCEICGRRFTQKGNLLRHIKL | -0.891
FYCDICGAFFTQKGNLLRHIKL | -0.268
FRCPVCGANFTQKGNLLRHIKL | -0.199
FQCEICGHAFTQKGNLLRHIKL | -2.37
FTCEICGAAFTQKGNLLRHIKL | -1.61
FACNICGAIFTQKGNLLRHIKL | -0.158
FWCEQCGALFTQKGNLLRHIKL | 0.432
FDCEQCGASFTQKGNLLRHIKL | -1.58
FGCNQCGHTFTQKGNLLRHIKL | -0.0759
FKCNVCGADFTQKGNLLRHIKL | -2.37
FDCPICGRWFTQKGNLLRHIKL | 0.978
LYCPICGFKCTQKGNLLRHIKL | 0.191
FECEICGAAFTQKGNLLRHIKL | -2.13
FICSVCGHGFTQKGNLLRHIKL | -0.726
FLCNICGAQFTQKGNLLRHIKL | -0.505
LCCNQCGFMCTQKGNLLRHIKL | 0.802
